Assay results published in the supplement of paper PMC8728848.
The other results are listed elsewhere or left out.

Key:
Assay in all cases: glycan array binding signal (z-score within array); higher = stronger binding
Conditions in all cases: glycan notation: IUPAC condensed, linker removed; mutation: H59Q
Gal(a1-6)Glc = target: Gal(a1-6)Glc
Outline: (§1)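 Columns mapping to the same glycan were averaged after glycan names were converted to IUPAC-condensed notation. The data come from 3228 arrays in the Consortium for Functional Glycomics database, limited to those with an available protein sequence. Binding is reported as a within-array Z-score averaged across arrays of one protein sequence and across linkers.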

Gal(b1-2)Gal = target: Gal(b1-2)Gal
Outline: as §1

Gal(b1-3)Gal = target: Gal(b1-3)Gal
Outline: as §1

Gal(b1-3)Gal(b1-4)GlcNAc = target: Gal(b1-3)Gal(b1-4)GlcNAc
Outline: as §1

Gal(b1-3)GalNAc = target: Gal(b1-3)GalNAc
Outline: as §1

[1] = target: Gal(b1-3)GalNAc(a1-3)[Fuc(a1-2)]Gal(b1-4)Glc
Outline: as §1

[2] = target: Gal(b1-3)GalNAc(a1-3)[Fuc(a1-2)]Gal(b1-4)GlcNAc
Outline: as §1

Gal(b1-3)GalNAc(b1-3)Gal = target: Gal(b1-3)GalNAc(b1-3)Gal
Outline: as §1

[3] = target: Gal(b1-3)GalNAc(b1-3)Gal(a1-4)Gal(b1-4)Glc
Outline: as §1

[4] = target: Gal(b1-3)GalNAc(b1-4)Gal(b1-4)Glc
Outline: as §1

[5] = target: Gal(b1-3)GalNAc(b1-4)[Neu5Ac(a2-3)]Gal(b1-4)Glc
Outline: as §1

Gal(b1-3)GlcNAc = target: Gal(b1-3)GlcNAc
Outline: as §1

[6] = target: Gal(b1-3)GlcNAc(a1-3)Gal(b1-4)GlcNAc
Outline: as §1

[7] = target: Gal(b1-3)GlcNAc(a1-6)Gal(b1-4)GlcNAc
Outline: as §1

Gal(b1-3)GlcNAc(b1-2)Man = target: Gal(b1-3)GlcNAc(b1-2)Man
Outline: as §1

[8] = target: Gal(b1-3)GlcNAc(b1-2)Man(a1-3)[Gal(b1-3)GlcNAc(b1-2)Man(a1-6)]Man(b1-4)GlcNAc(b1-4)GlcNAc
Outline: as §1

[9] = target: Gal(b1-3)GlcNAc(b1-2)Man(a1-3)[Gal(b1-3)GlcNAc(b1-2)Man(a1-6)]Man(b1-4)GlcNAc(b1-4)[Fuc(a1-6)]GlcNAc
Outline: as §1

[10] = target: Gal(b1-3)GlcNAc(b1-2)Man(a1-3)[GlcNAc(b1-4)][Gal(b1-3)GlcNAc(b1-2)Man(a1-6)]Man(b1-4)GlcNAc(b1-4)GlcNAc
Outline: as §1

[11] = target: Gal(b1-3)GlcNAc(b1-2)[Gal(b1-3)GlcNAc(b1-6)]Man(a1-6)[Gal(b1-3)GlcNAc(b1-2)Man(a1-3)]Man(b1-4)GlcNAc(b1-4)GlcNAc
Outline: as §1

[12] = target: Gal(b1-3)GlcNAc(b1-3)Gal(b1-3)GlcNAc
Outline: as §1

[13] = target: Gal(b1-3)GlcNAc(b1-3)Gal(b1-4)Glc
Outline: as §1

[14] = target: Gal(b1-3)GlcNAc(b1-3)Gal(b1-4)GlcNAc
Outline: as §1

[15] = target: Gal(b1-3)GlcNAc(b1-3)Gal(b1-4)GlcNAc(b1-2)Man(a1-3)[Gal(b1-3)GlcNAc(b1-3)Gal(b1-4)GlcNAc(b1-2)Man(a1-6)]Man(b1-4)GlcNAc(b1-4)GlcNAc
Outline: as §1

[16] = target: Gal(b1-3)GlcNAc(b1-3)Gal(b1-4)GlcNAc(b1-2)[Gal(b1-3)GlcNAc(b1-3)Gal(b1-4)GlcNAc(b1-6)]Man(a1-6)[Gal(b1-3)GlcNAc(b1-3)Gal(b1-4)GlcNAc(b1-2)Man(a1-3)]Man(b1-4)GlcNAc(b1-4)[Fuc(a1-6)]GlcNAc
Outline: as §1

[17] = target: Gal(b1-3)GlcNAc(b1-3)Gal(b1-4)GlcNAc(b1-3)Gal(b1-4)GlcNAc(b1-2)[Gal(b1-3)GlcNAc(b1-3)Gal(b1-4)GlcNAc(b1-3)Gal(b1-4)GlcNAc(b1-6)]Man(a1-6)[Gal(b1-3)GlcNAc(b1-3)Gal(b1-4)GlcNAc(b1-3)Gal(b1-4)GlcNAc(b1-2)Man(a1-3)]Man(b1-4)GlcNAc(b1-4)[Fuc(a1-6)]GlcNAc
Outline: as §1

[18] = target: Gal(b1-3)GlcNAc(b1-3)Gal(b1-4)GlcNAc(b1-6)[Gal(b1-3)GlcNAc(b1-3)]Gal(b1-4)Glc
Outline: as §1

[19] = target: Gal(b1-3)GlcNAc(b1-3)Gal(b1-4)[Fuc(a1-3)]GlcNAc
Outline: as §1

[20] = target: Gal(b1-3)GlcNAc(b1-3)Gal(b1-4)[Fuc(a1-3)]GlcNAc(b1-6)[Gal(b1-3)GlcNAc(b1-3)]Gal(b1-4)Glc
Outline: as §1

[21] = target: Gal(b1-3)GlcNAc(b1-3)GalNAc
Outline: as §1

[22] = target: Gal(b1-3)GlcNAc(b1-6)Gal(b1-4)GlcNAc
Outline: as §1

[23] = target: Gal(b1-3)GlcNAc(b1-6)GalNAc
Outline: as §1

[24] = target: Gal(b1-3)GlcNAc(b1-6)[Gal(b1-3)]GalNAc
Outline: as §1

Gal(b1-3)GlcNAc6S = target: Gal(b1-3)GlcNAc6S
Outline: as §1

[25] = target: Gal(b1-3)[Fuc(a1-4)]GlcNAc
Outline: as §1

[26] = target: Gal(b1-3)[Fuc(a1-4)]GlcNAc(b1-2)Man
Outline: as §1

[27] = target: Gal(b1-3)[Fuc(a1-4)]GlcNAc(b1-2)Man(a1-3)[Gal(b1-3)[Fuc(a1-4)]GlcNAc(b1-2)Man(a1-6)]Man(b1-4)GlcNAc(b1-4)[Fuc(a1-6)]GlcNAc
Outline: as §1

[28] = target: Gal(b1-3)[Fuc(a1-4)]GlcNAc(b1-3)Gal(b1-3)[Fuc(a1-4)]GlcNAc
Outline: as §1

[29] = target: Gal(b1-3)[Fuc(a1-4)]GlcNAc(b1-3)Gal(b1-4)[Fuc(a1-3)]GlcNAc
Outline: as §1

[30] = target: Gal(b1-3)[Fuc(a1-4)]GlcNAc(b1-6)GalNAc
Outline: as §1

[31] = target: Gal(b1-3)[GlcNAc(b1-6)]GalNAc
Outline: as §1

[32] = target: Gal(b1-3)[Neu5Ac(a2-6)]GalNAc
Outline: as §1

[33] = target: Gal(b1-3)[Neu5Ac(a2-6)]GlcNAc(b1-4)Gal(b1-4)Glc
Outline: as §1

[34] = target: Gal(b1-3)[Neu5Ac(b2-6)]GalNAc
Outline: as §1

Gal(b1-4)Gal = target: Gal(b1-4)Gal
Outline: as §1

[35] = target: Gal(b1-4)GalNAc(a1-3)[Fuc(a1-2)]Gal(b1-4)GlcNAc
Outline: as §1

B1: rAAL-H59Q (Agrocybe aegerita), Q6WY08 (protein)
chain: MQGVNIYNISAGTSVDLAAPVTTGDIVTFFSSALNLNAGAGNPNNTTLNLFAENGAYLLQIAFRLQENVIIFNSRQPDGPWLVEQRVSDVANQFAGIDGKAMVTVFDHGDKYQVVINEKTVIQYTKQISGLTLSLSYNATEETSIFSTVVEAVTYTGLALEHHHHHH
glycan array binding signal (z-score) (Gal(a1-6)Glc): -0.062
glycan array binding signal (z-score) (Gal(b1-2)Gal): -0.097
glycan array binding signal (z-score) (Gal(b1-3)Gal): -0.05
glycan array binding signal (z-score) (Gal(b1-3)Gal(b1-4)GlcNAc): -0.079
glycan array binding signal (z-score) (Gal(b1-3)GalNAc): -0.097
glycan array binding signal (z-score) [1]: 0.012
glycan array binding signal (z-score) [2]: -0.093
glycan array binding signal (z-score) (Gal(b1-3)GalNAc(b1-3)Gal): -0.095
glycan array binding signal (z-score) [3]: -0.021
glycan array binding signal (z-score) [4]: -0.083
glycan array binding signal (z-score) [5]: -0.109
glycan array binding signal (z-score) (Gal(b1-3)GlcNAc): -0.102
glycan array binding signal (z-score) [6]: -0.119
glycan array binding signal (z-score) [7]: 0.005
glycan array binding signal (z-score) (Gal(b1-3)GlcNAc(b1-2)Man): -0.103
glycan array binding signal (z-score) [8]: -0.099
glycan array binding signal (z-score) [9]: -0.137
glycan array binding signal (z-score) [10]: -0.093
glycan array binding signal (z-score) [11]: -0.084
glycan array binding signal (z-score) [12]: -0.108
glycan array binding signal (z-score) [13]: -0.083
glycan array binding signal (z-score) [14]: -0.093
glycan array binding signal (z-score) [15]: -0.16
glycan array binding signal (z-score) [16]: 0.115
glycan array binding signal (z-score) [17]: -0.104
glycan array binding signal (z-score) [18]: -0.026
glycan array binding signal (z-score) [19]: -0.084
glycan array binding signal (z-score) [20]: -0.105
glycan array binding signal (z-score) [21]: -0.109
glycan array binding signal (z-score) [22]: -0.104
glycan array binding signal (z-score) [23]: -0.025
glycan array binding signal (z-score) [24]: -0.143
glycan array binding signal (z-score) (Gal(b1-3)GlcNAc6S): -0.066
glycan array binding signal (z-score) [25]: -0.116
glycan array binding signal (z-score) [26]: -0.094
glycan array binding signal (z-score) [27]: -0.055
glycan array binding signal (z-score) [28]: -0.086
glycan array binding signal (z-score) [29]: -0.134
glycan array binding signal (z-score) [30]: -0.102
glycan array binding signal (z-score) [31]: -0.112
glycan array binding signal (z-score) [32]: -0.095
glycan array binding signal (z-score) [33]: -0.115
glycan array binding signal (z-score) [34]: -0.098
glycan array binding signal (z-score) (Gal(b1-4)Gal): -0.098
glycan array binding signal (z-score) [35]: -0.088
